Reference: the supplement of paper PMC12297408
Counter-ions that a name gives are not always drawn. Screen size: about 1,300 compounds; about 40 (3%) showed activity. The list shows a part of the results.

Tested on: Plasmodium falciparum NF54/iGP1_RE9H ulg8 stage V gametocytes
Experiment: gametocyte viability (luciferase signal relative to DMSO control) (% of DMSO control); higher = less gametocytocidal activity, active = 50 or less
Details: exposure time: 72 h
Method in brief: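 In 96-well plates holding nanolitre spots of compound (10 mM DMSO stocks), NF54/iGP1_RE9Hulg8 stage V gametocytes from day 12 were added at ~2.5% gametocytemia and 3% hematocrit in medium with 0.5% Albumax II, giving single wells at 10 µM or 1 µM. Incubation lasted 72 h at 37 °C. Each 90 µl sample then received 10 µl D-luciferin (30 mg/ml) before luminescence reading on an IVIS Lumina II, and viability was normalized to the mean of DMSO vehicle wells on the same plate.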

## CCCC(=O)Nc1ccc(OCC(O)CNC(C)C)c(C(C)=O)c1 (stereo not given) [Acebutolol hydrochloride]
concentration: 1 µM
  gametocyte viability: inactive: 99.1
concentration: 10 µM
  gametocyte viability: inactive: 91.7

## CN1[C@@H]2CC[C@H]1C[C@@H](OC(c1ccccc1)c1ccccc1)C2 [Benztropine mesylate]
concentration: 1 µM
  gametocyte viability: inactive: 85.2
concentration: 10 µM
  gametocyte viability: inactive: 88.5

## CC(=O)Nc1ccc(OCC(O)CNC(C)C)cc1 (stereo not given) [Practolol]
concentration: 1 µM
  gametocyte viability: inactive: 94.9
concentration: 10 µM
  gametocyte viability: inactive: 88.3

## Cc1cccc(C)c1NC(=O)CN1CCN(CCCC(c2ccc(F)cc2)c2ccc(F)cc2)CC1 [Lidoflazine]
concentration: 1 µM
  gametocyte viability: inactive: 80.9
concentration: 10 µM
  gametocyte viability: inactive: 86.1

## CC(=O)O[C@]1(C(C)=O)CC[C@H]2[C@@H]3C=C(C)C4=CC(=O)CC[C@]4(C)[C@H]3CC[C@@]21C [Megestrol acetate]
concentration: 1 µM
  gametocyte viability: inactive: 93.8
concentration: 10 µM
  gametocyte viability: inactive: 96.9

## Nc1nnc(-c2cccc(Cl)c2Cl)c(N)n1 [Lamotrigine]
concentration: 1 µM
  gametocyte viability: inactive: 90.9
concentration: 10 µM
  gametocyte viability: inactive: 96.5

## CC[C@@]1(O)C(=O)OCc2c1cc1n(c2=O)Cc2cc3c(CN(C)C)c(O)ccc3nc2-1 [Topotecan]
concentration: 1 µM
  gametocyte viability: inactive: 82.2
concentration: 10 µM
  gametocyte viability: inactive: 76.8

## Clc1cc(Cl)c(OCC#CI)cc1Cl [Haloprogin]
concentration: 1 µM
  gametocyte viability: inactive: 82.8
concentration: 10 µM
  gametocyte viability: inactive: 63.6

## Nc1nc(=O)[nH]cc1F [Flucytosine]
concentration: 1 µM
  gametocyte viability: inactive: 84.3
concentration: 10 µM
  gametocyte viability: inactive: 89.3

## CCOCCn1c(N2CCCN(C)CC2)nc2ccccc21 [Emedastine]
concentration: 1 µM
  gametocyte viability: inactive: 93.5
concentration: 10 µM
  gametocyte viability: inactive: 94.4

## Cc1cccn2c(=O)c(-c3nnn[nH]3)cnc12 [Pemirolast potassium]
concentration: 1 µM
  gametocyte viability: inactive: 80.6
concentration: 10 µM
  gametocyte viability: inactive: 84.7

## CC[C@H](C)C(=O)O[C@H]1C[C@H](O)C=C2C=C[C@H](C)[C@H](CC[C@@H](O)C[C@@H](O)CC(=O)O)[C@H]21 [Pravastatin]
concentration: 1 µM
  gametocyte viability: inactive: 99.2
concentration: 10 µM
  gametocyte viability: inactive: 94.8

## CC(C)(C)NCC(O)COc1cccc2c1CC(O)C(O)C2 (stereo not given) [Nadolol]
concentration: 1 µM
  gametocyte viability: inactive: 88.2
concentration: 10 µM
  gametocyte viability: inactive: 80.7

## CC(=O)NC[C@H]1CN(c2ccc(N3CCOCC3)c(F)c2)C(=O)O1 [Linezolid]
concentration: 1 µM
  gametocyte viability: inactive: 97.4
concentration: 10 µM
  gametocyte viability: inactive: 95.5

## Cc1nccn1CC1CCc2c(c3ccccc3n2C)C1=O (stereo not given) [Ondansetron Hydrochloride]
concentration: 1 µM
  gametocyte viability: inactive: 96.9
concentration: 10 µM
  gametocyte viability: inactive: 90.8

## COc1ccc2c(c1)c(CC(=O)OCC(=O)O)c(C)n2C(=O)c1ccc(Cl)cc1 [Acemetacin]
concentration: 1 µM
  gametocyte viability: inactive: 87.6
concentration: 10 µM
  gametocyte viability: inactive: 85.7

## Cc1cccc(Nc2ccncc2S(=O)(=O)NC(=O)NC(C)C)c1 [Torsemide]
concentration: 1 µM
  gametocyte viability: inactive: 91.2
concentration: 10 µM
  gametocyte viability: inactive: 89.6

## C[C@]12CC[C@H]3[C@@H](CCC4=CC(=O)CC[C@@]43C)[C@@H]1CC[C@@H]2C(=O)CO [Deoxycorticosterone]
concentration: 1 µM
  gametocyte viability: inactive: 88.9
concentration: 10 µM
  gametocyte viability: inactive: 75.7

## COc1cc(NS(=O)(=O)c2ccc(N)cc2)nc(OC)n1 [Sulfadimethoxine]
concentration: 1 µM
  gametocyte viability: inactive: 90.7
concentration: 10 µM
  gametocyte viability: inactive: 82.2

## CC[N+](CC)(CC(=O)Nc1c(C)cccc1C)Cc1ccccc1 [Denatonium benzoate]
concentration: 1 µM
  gametocyte viability: inactive: 89.7
concentration: 10 µM
  gametocyte viability: inactive: 92.8

## CC1(C)O[C@@H]2[C@@H](CO[C@@]3(COS(N)(=O)=O)OC(C)(C)O[C@@H]23)O1 [Topiramate]
concentration: 1 µM
  gametocyte viability: inactive: 91.4
concentration: 10 µM
  gametocyte viability: inactive: 96

## CC(C)Cn1cnc2c(N)nc3ccccc3c21 [Imiquimod]
concentration: 1 µM
  gametocyte viability: inactive: 88.4
concentration: 10 µM
  gametocyte viability: inactive: 85.1

## NC(=O)N1c2ccccc2CC(=O)c2ccccc21 [Oxcarbazepine]
concentration: 1 µM
  gametocyte viability: inactive: 83.9
concentration: 10 µM
  gametocyte viability: inactive: 88.3

## COc1ccc2c3c1O[C@H]1C[C@@H](O)C=C[C@@]31CCN(C)C2 [Galanthamine hydrobromide]
concentration: 1 µM
  gametocyte viability: inactive: 88.4
concentration: 10 µM
  gametocyte viability: inactive: 94.7

## O=c1[nH]c(=O)n([C@H]2C[C@H](O)[C@@H](CO)O2)cc1C(F)(F)F [Trifluridine]
concentration: 1 µM
  gametocyte viability: inactive: 89.9
concentration: 10 µM
  gametocyte viability: inactive: 88.1

## Cc1nnc(SCC2=C(C(=O)O)N3C(=O)[C@@H](NC(=O)Cn4cnnn4)[C@H]3SC2)s1 [Cefazolin sodium salt]
concentration: 1 µM
  gametocyte viability: inactive: 96.4
concentration: 10 µM
  gametocyte viability: inactive: 99.5

## CC(C)NC(=N)NC(=N)Nc1ccc(Cl)cc1 [Proguanil hydrochloride]
concentration: 1 µM
  gametocyte viability: inactive: 100
concentration: 10 µM
  gametocyte viability: inactive: 106

## CN(Cc1ccc(C(C)(C)C)cc1)Cc1cccc2ccccc12 [Butenafine Hydrochloride]
concentration: 1 µM
  gametocyte viability: inactive: 97.1
concentration: 10 µM
  gametocyte viability: inactive: 84.2

## S=c1[nH]cnc2nc[nH]c12 [Mercaptopurine]
concentration: 1 µM
  gametocyte viability: inactive: 82.1
concentration: 10 µM
  gametocyte viability: inactive: 84.9

## CCCCCCCCNC(C)C(O)c1ccc(SC(C)C)cc1 (stereo not given) [Suloctidil]
concentration: 1 µM
  gametocyte viability: inactive: 80.5
concentration: 10 µM
  gametocyte viability: inactive: 84.4

## CC(=O)CC(c1ccc([N+](=O)[O-])cc1)c1c(O)c2ccccc2oc1=O (stereo not given) [Acenocoumarol]
concentration: 1 µM
  gametocyte viability: inactive: 84.4
concentration: 10 µM
  gametocyte viability: inactive: 82.4

## NC(=O)c1ccc[n+]([C@@H]2O[C@H](COP(=O)([O-])OP(=O)(O)OC[C@H]3O[C@@H](n4cnc5c(N)ncnc54)[C@H](O)[C@@H]3O)[C@@H](O)[C@H]2O)c1 [Nadide]
concentration: 1 µM
  gametocyte viability: inactive: 85.3
concentration: 10 µM
  gametocyte viability: inactive: 79.3

## CNCCC=C1c2ccccc2C=Cc2ccccc21 [Norcyclobenzaprine]
concentration: 1 µM
  gametocyte viability: inactive: 83.3
concentration: 10 µM
  gametocyte viability: inactive: 80.6

## Cc1ccc(C)c(OCCCC(C)(C)C(=O)O)c1 [Gemfibrozil]
concentration: 1 µM
  gametocyte viability: inactive: 86.7
concentration: 10 µM
  gametocyte viability: inactive: 88.3

## O=C(CCCN1CCC(O)(c2ccc(Cl)cc2)CC1)c1ccc(F)cc1 [Haloperidol]
concentration: 1 µM
  gametocyte viability: inactive: 80.4
concentration: 10 µM
  gametocyte viability: inactive: 80.4

## C[C@]12CCC(=O)C=C1C=C[C@@H]1[C@@H]2CC[C@@]2(C)[C@H]1CC[C@@]21CCC(=O)O1 [Canrenone]
concentration: 1 µM
  gametocyte viability: inactive: 80
concentration: 10 µM
  gametocyte viability: inactive: 83.7

## NC(=O)OCC(O)COc1ccc(Cl)cc1 (stereo not given) [Chlorphensin carbamate]
concentration: 1 µM
  gametocyte viability: inactive: 86.3
concentration: 10 µM
  gametocyte viability: inactive: 83.2

## CN1C(C(=O)Nc2ccccn2)=C(O)c2ccccc2S1(=O)=O [Piroxicam]
concentration: 1 µM
  gametocyte viability: inactive: 90.5
concentration: 10 µM
  gametocyte viability: inactive: 87.8

## COCCOC(=O)C1=C(C)NC(C)=C(C(=O)OC(C)C)C1c1cccc([N+](=O)[O-])c1 (stereo not given) [Nimodipine]
concentration: 1 µM
  gametocyte viability: inactive: 89.5
concentration: 10 µM
  gametocyte viability: inactive: 88.5

## COC(=O)CCc1ccc(OCC(O)CNC(C)C)cc1 (stereo not given) [Esmolol hydrochloride]
concentration: 1 µM
  gametocyte viability: inactive: 87.8
concentration: 10 µM
  gametocyte viability: inactive: 82.3

## COc1cccc(N(C)C(=S)Oc2ccc3c(c2)CCCC3)n1 [Liranaftate]
concentration: 1 µM
  gametocyte viability: inactive: 82.2
concentration: 10 µM
  gametocyte viability: inactive: 83

## CCCNC(C)C(=O)Nc1c(C)csc1C(=O)OC (stereo not given) [Articaine hydrochloride]
concentration: 1 µM
  gametocyte viability: inactive: 81.9
concentration: 10 µM
  gametocyte viability: inactive: 83

## NCCc1cc[nH]n1 [Betazole hydrochloride]
concentration: 1 µM
  gametocyte viability: inactive: 94.2
concentration: 10 µM
  gametocyte viability: inactive: 94.2

## Cc1c(NC(C)C)c(=O)n(-c2ccccc2)n1C [Isopyrin hydrochloride]
concentration: 1 µM
  gametocyte viability: inactive: 94.9
concentration: 10 µM
  gametocyte viability: inactive: 92.5

## CN(C)CCN(Cc1ccc(Cl)cc1)c1ccccn1 [Chloropyramine hydrochloride]
concentration: 1 µM
  gametocyte viability: inactive: 87.4
concentration: 10 µM
  gametocyte viability: inactive: 90.3

## NS(=O)(=O)Cc1noc2ccccc12 [Zonisamide]
concentration: 1 µM
  gametocyte viability: inactive: 78.5
concentration: 10 µM
  gametocyte viability: inactive: 88.5

## COc1ccc2c(c1)C(=O)N(CCc1ccc(S(=O)(=O)NC(=O)NC3CCCCC3)cc1)C(=O)C2(C)C [Gliquidone]
concentration: 1 µM
  gametocyte viability: inactive: 90.5
concentration: 10 µM
  gametocyte viability: inactive: 80.9

## COc1ccc([C@@H]2Sc3ccccc3N(CCN(C)C)C(=O)[C@@H]2OC(C)=O)cc1 [Diltiazem hydrochloride]
concentration: 1 µM
  gametocyte viability: inactive: 91.2
concentration: 10 µM
  gametocyte viability: inactive: 91.5

## Cc1cn([C@H]2C[C@H](N=[N+]=[N-])[C@@H](CO)O2)c(=O)[nH]c1=O [Zidovudine, AZT]
concentration: 1 µM
  gametocyte viability: inactive: 92.5
concentration: 10 µM
  gametocyte viability: inactive: 91.6

## CC(C[N+](C)(C)C)OC(N)=O (stereo not given) [Bethanechol chloride]
concentration: 1 µM
  gametocyte viability: inactive: 94.8
concentration: 10 µM
  gametocyte viability: inactive: 95.4

## CN(C)CCCC1(c2ccc(F)cc2)OCc2cc(C#N)ccc21 (stereo not given) [Citalopram Hydrobromide]
concentration: 1 µM
  gametocyte viability: inactive: 94
concentration: 10 µM
  gametocyte viability: inactive: 93.3

## CCCC(CCC)C(=O)O [Valproic acid]
concentration: 1 µM
  gametocyte viability: inactive: 82.7
concentration: 10 µM
  gametocyte viability: inactive: 85.7

## O=C(O)CNC(=O)C(CS)Cc1ccccc1 (stereo not given) [Thiorphan]
concentration: 1 µM
  gametocyte viability: inactive: 91.7
concentration: 10 µM
  gametocyte viability: inactive: 90.7

## Cc1onc(-c2ccccc2)c1C(=O)N[C@@H]1C(=O)N2[C@@H]1SC(C)(C)[C@@H]2C(=O)O [Oxacillin sodium]
concentration: 1 µM
  gametocyte viability: inactive: 98.1
concentration: 10 µM
  gametocyte viability: inactive: 94.6

## COC1=CC(=O)C[C@@H](C)[C@]12Oc1c(Cl)c(OC)cc(OC)c1C2=O [Griseofulvin]
concentration: 1 µM
  gametocyte viability: inactive: 89.3
concentration: 10 µM
  gametocyte viability: inactive: 84.6

## CN(C)CCC(c1ccc(Cl)cc1)c1ccccn1 (stereo not given) [Chlorpheniramine maleate]
concentration: 1 µM
  gametocyte viability: inactive: 86.2
concentration: 10 µM
  gametocyte viability: inactive: 81.6

## COc1cc(N)c(Cl)cc1C(=O)NC1CCN(CCCOc2ccc(F)cc2)CC1OC (stereo not given) [Cisapride]
concentration: 1 µM
  gametocyte viability: inactive: 95.9
concentration: 10 µM
  gametocyte viability: inactive: 96.7

## CC(C)(C)NC(=O)[C@@H]1CN(Cc2cccnc2)CCN1C[C@@H](O)C[C@@H](Cc1ccccc1)C(=O)N[C@H]1c2ccccc2C[C@H]1O [Indinavir sulfate]
concentration: 1 µM
  gametocyte viability: inactive: 67
concentration: 10 µM
  gametocyte viability: active: 40

## O=C(O[C@@H]1C[C@@H]2C[C@H]3C[C@H](C1)N2CC3=O)c1c[nH]c2ccccc12 [Dolasetron mesilate]
concentration: 1 µM
  gametocyte viability: inactive: 84.5
concentration: 10 µM
  gametocyte viability: inactive: 83.5

## COC(=O)Nc1nc2cc(C(=O)c3ccc(F)cc3)ccc2[nH]1 [Flubendazol]
concentration: 1 µM
  gametocyte viability: inactive: 80
concentration: 10 µM
  gametocyte viability: inactive: 87.7
